Experimental data reported in the RNAGym collection of RNA variant scans (doi:10.7554/elife.90254).
Read counts are not given, so values of variants with three or more changes are uncertain.

B1: LINE1-full (parent)
chain: UACGUAGGUGGUUUUCCCCUGAUAGUGCUAAGGGGGCCUGGAAGUUUGGACUGGGCAGAGCUCAACACAGCGUGGCAAAGUGGCUGUGGCUAGACUGCCUCUCUGGAUUCCUCGUCACUCAGCAGGGCAUCUCUGAGAGAAAUGCC

Variants of: B1
Experiment: self-cleavage, relative activity (ratio to wild type); higher = more cleavage; in vitro, sequencing; the parent is a self-cleaving ribozyme

Row | Variant | self-cleavage
1 | UACGUAGGUGGUUUUCCCCUGAUAGUGCUAAGGGGGCCUGGAAGUUUGGACUGGGCAGAGCUCGACACAGCGUGGCAAAGUGGCAGAGGCUAGACUGCCUCUCUGGAUUCCUCGUCACUCAGCAGGGCAUCUCUGAGAGAAAUGCC [A64G U85A U87A] | 0.03
2 | UACGUAGGUGGUUUUCCCCUGAUAGUGCUAAGGGGGCCUGGAAGUUUGGACUGGGCAGAGCUCGACACAGCGUGGCAAAGUGGCUGUGGCUAGACUGCCUCUCUGGAUUCCUCGUCACUCAGCAGGGCACCUCUGAGAGAACCGCC [A64G U130C A142C U143C] | 0
3 | UACGUAGGUGGUUUUCCCCUGAUAGUGCUAAGGGGGCCUGGAAGUUUGGACUGGGCAGAGCUCUACACAGCGUGGCAAAGUGGCUGUGGCUAGACUGCCUCUCUGGAUUCCUCGUCACUCAGCAGGGCAUCUCUGGGAGAGAUGCC [A64U A136G A141G] | 0.45
4 | UACGUAGGUGGUUUUCCCCUGAUAGUGCUAAGGGGGCCUGGAAGUUUGGACUGGGCAGAGCUCGACACAGCGUGGCAAAGUGGCUGUGGCUAGACAGCCUCUCUGGAUUCCUCGUCACUCAGCAGGGCGUCUCUGAGAGAAAUGCC [A64G U96A A129G] | 0
5 | UACGUAGGUGGUUUUCCCCUGAUAGUGCUAAGGGGGCCUGGAAGUUUGGACUGGGCAGAGCUCUACACAGCGUGGCAAAGUGGCUGUGGCUAGGCUGCCUCUCUGGAUUCCUCGUCACUCAGCAGGGCAUCUCUGAGAGAAGUGCC [A64U A94G A142G] | 0.08
6 | UACGUAGGUGGUUUUCCCCUGAUAGUGCUAAGGGGGCCUGGAAGUUUGGACUGGGCAGAGCUCUACACAGCGUGGCAAAGUGGCUGUGGCUAGACUGCCUCUCUGGUUCCCCCGUCACUCAGCAGGGCAUCUCUGAGAGAAAUGCC [A64U A107U U109C U112C] | 1.31
7 | UACGUAGGUGGUUUUCCCCUGAUAGUGCUAAGGGGGCCUGGAAGUUUGGACUGGGCAGAGCUCUACACAGCGUGGCAGAGUGGCUGUGGCUAGACUGCCUCUCUGGAUUCCUCGUCACUCAGCAGGGCAUCUCUGAGGGAAAUGCC [A64U A78G A138G] | 0.28
8 | UACGUAGGUGGUUUUCCCCUGAUAGUGCUAAGGGGGCCUGGAAGUUUGGACUGGGCAGAGCUCUACACAGCGUGGCAAAGUGGCUGUGGCUAGACUGCCUCUCUGGUUUCCUCGUCACUCAGCAGGGCAUCUCUGAGGGAAAUGCC [A64U A107U A138G] | 0.54
9 | UACGUAGGUGGUUUUCCCCUGAUAGUGCUAAGGGGGCCUGGAAGUUUGGACUGGGCAGAGCUCGACACAGCGUGGCAAAGGGGCUGUGGCUAGACCGCCUCUCUGGAUUCCUCGUCACUCAGCAGGGCGUCUCUGAGAGAAAUGCC [A64G U81G U96C A129G] | 0
10 | UACGUAGGUGGUUUUCCCCUGAUAGUGCUAAGGGGGCCUGGAAGUUUGGACUGGGCAGAGCUCGACACAGCGUGGCAAAGUGGCAGAGGCUAGGCUGCCUCUCUGGAUUCCUCGUCACUCAGCUGGGCAUCUCUGAGAGAAAUGCC [A64G U85A U87A A94G A124U] | 0
11 | UACGUAGGUGGUUUUCCCCUGAUAGUGCUAAGGGGGCCUGGAAGUUUGGACUGGGCAGAGCUCUACACAGCGUGGCAAAGUGGCUGUGGCUAGGCUGCCUCUCUGGAUUCCUCGUCACUCAGCAGGGCAUCUCUGAGAGAGAUGCC [A64U A94G A141G] | 0.15
12 | UACGUAGGUGGUUUUCCCCUGAUAGUGCUAAGGGGGCCUGGAAGUUUGGACUGGGCAGAGCUCGACACAGCGUGGCAAAGCGGCUGUGGCUAGACUGCCUCUCUGGAUUCCUCGUCACUCAGCAGGGCAUCUCUGAGAGCAAUGCC [A64G U81C A140C] | 0
13 | UACGUAGGUGGUUUUCCCCUGAUAGUGCUAAGGGGGCCUGGAAGUUUGGACUGGGCAGAGCUCGACACAGCGUGGCAAAGUGGCUGUGGCUAGACUGCCUCUCUGGAUCCCUCGUCACUCAGCAGGGCAUCUCUGAGAGGAAUGCC [A64G U109C A140G] | 0.31
14 | UACGUAGGUGGUUUUCCCCUGAUAGUGCUAAGGGGGCCUGGAAGUUUGGACUGGGCAGAGCUCUACACAGCGUGGCAAAGUGGCUGUGGCUAGACUGCCUCUCUGGAUUCCUCGUCACUCAGCGGGGCAUCUCAGAGAGAAAUGCC [A64U A124G U134A] | 0.1
15 | UACGUAGGUGGUUUUCCCCUGAUAGUGCUAAGGGGGCCUGGAAGUUUGGACUGGGCAGAGCUCGACACAGCGUGGCAAAGUGGCUGUGGCUAGACUGCCUCUCUGGAUUCCUCGACACUCAGCAGGGCAUCUCUGAGAGGAAUGCC [A64G U115A A140G] | 0.21
16 | UACGUAGGUGGUUUUCCCCUGAUAGUGCUAAGGGGGCCUGGAAGUUUGGACUGGGCAGAGCUCGACACAGCGUGGCAAAGUGGCCGAGGCUAGACUGCCUCUCUGGGUUCCUCGUCACUCAGCAGGGCAUCUCUGAGAGAAAUGCC [A64G U85C U87A A107G] | 0.3
17 | UACGUAGGUGGUUUUCCCCUGAUAGUGCUAAGGGGGCCUGGAAGUUUGGACUGGGCAGAGCUCGACACAGCGUGGCAAAGUGGCUGCGGCUAGACUGCCUCUCUGGAUUCCUCGUCACUCAGCAGGGCAUCUCUGAGAGAAGUGCC [A64G U87C A142G] | 0.38
18 | UACGUAGGUGGUUUUCCCCUGAUAGUGCUAAGGGGGCCUGGAAGUUUGGACUGGGCAGAGCUCUACACAGCGUGGCAAAGUGGCUGUGGCUUGACUGCCCCUCUGGAUUCCUCGUCACUCAGCAGGGCAUCUCUGAGAGAAAUGCC [A64U A92U U100C] | 0.18
19 | UACGUAGGUGGUUUUCCCCUGAUAGUGCUAAGGGGGCCUGGAAGUUUGGACUGGGCAGAGCUCUACACAGCGUGGCUAAGUGGCUGUGGCUAGACUGCCUCUCUGGAUUCCUCGUCACUCAGCGGGGCAUCUCUGAGAGAAGUGCC [A64U A77U A124G A142G] | 0.21
20 | UACGUAGGUGGUUUUCCCCUGAUAGUGCUAAGGGGGCCUGGAAGUUUGGACUGGGCAGAGCUCGACACAGCGUGGCAAAGUGGCUGUGGCUAGACUGCCUCUCUGGAUUCCUCGUCACUCAGCAGGGCAUCCCUGAGUGAAAUGCC [A64G U132C A138U] | 0.21

Row | Variant | self-cleavage
21 | UACGUAGGUGGUUUUCCCCUGAUAGUGCUAAGGGGGCCUGGAAGUUUGGACUGGGCAGAGCUCUACACUGCGUGGCAAAGUGGCUGUGGCUAGACUGCCUCUCUGGAUUCCUCGUCACCCAGCAGGGCAUCUCUGAGAGAAAUGCC [A64U A69U U119C] | 0.05
22 | UACGUAGGUGGUUUUCCCCUGAUAGUGCUAAGGGGGCCUGGAAGUUUGGACUGGGCAGAGCUCUACACAGCGAGGCAGAGUGGCUGUGGCUAGACUGCCUCUCUGGAUUCCUCGUCACUCAGCAGGGCAUCUCUGAGAGAAAUGCC [A64U U73A A78G] | 0.21
23 | UACGUAGGUGGUUUUCCCCUGAUAGUGCUAAGGGGGCCUGGAAGUUUGGACUGGGCAGAGCUCUACACAGCGUGGUAAAGUGGCUGUGGCUAGACUGCCUCUCUGGAUUCCUCGUCACUCUGCAGGGCAUCUCUGGGAGAAAAGCC [A64U C76U A121U A136G U143A] | 1.17
24 | UACGUAGGUGGUUUUCCCCUGAUAGUGCUAAGGGGGCCUGGAAGUUUGGACUGGGCAGAGCUCGACACAGCGUGGCAAAGUGGCUGUGGCUAGACUGCCUCUCUGGAUCCCUCGUCUCUCAGCAGGGCAUCUCUGGGAGAAACGCC [A64G U109C A117U A136G U143C] | 0.27
25 | UACGUAGGUGGUUUUCCCCUGAUAGUGCUAAGGGGGCCUGGAAGUUUGGACUGGGCAGAGCUCUACACAGCGUGUCAAAGUGGCUGUGGCUAGACUGCCUCUCUGGAUUCCUCGUCACUCAGCAGGGCAUCUCUGAGAGAGAUGCC [A64U G75U A141G] | 0.22
26 | UACGUAGGUGGUUUUCCCCUGAUAGUGCUAAGGGGGCCUGGAAGUUUGGACUGGGCAGAGCUCUACACAGCGUGGCAAAGUGGCUGUGGCUAGACUGCCUCUCUGGAUUCCUCGUCACUCGGCAGGGCAUCUCCGAGAGAAAUGCC [A64U A121G U134C] | 0.42
27 | UACGUAGGUGGUUUUCCCCUGAUAGUGCUAAGGGGGCCUGGAAGUUUGGACUGGGCAGAGCUCGACACAGCGUGGCAAAGUGGCUGUGGCUAGACUGCCUCUCUGGAUUCCUCGUCACCCGGCAGGGCAUCUCUGAGAGAAAUGCC [A64G U119C A121G] | 0
28 | UACGUAGGUGGUUUUCCCCUGAUAGUGCUAAGGGGGCCUGGAAGUUUGGACUGGGCAGAGCUCGACACAGCGUGGCAAAGUGGCAGUGGCUAGACUGCCUCUCGGGGUUCCUCGUCACUCAGCAGGGCAUCUCUGAGAGAAAUGCC [A64G U85A U104G A107G] | 0
29 | UACGUAGGUGGUUUUCCCCUGAUAGUGCUAAGGGGGCCUGGAAGUUUGGACUGGGCAGAGCUCUACACAGCGUGGCAAAGUGGCUGUGGCUAGGCUGCCUCUCUGGAUUCCUCGUCACUCAGCAGGGCAUCUCUGGGAGAAAUGCC [A64U A94G A136G] | 0.09
30 | UACGUAGGUGGUUUUCCCCUGAUAGUGCUAAGGGGGCCUGGAAGUUUGGACUGGGCAGAGCUCUACACAGCGUGGCAAAGUGGCUGUGGCUAGACUGCCUCUCUGGAUUCCUCGUCACUCUGCAGGGCAUCUCUGAGGGAAAUGCC [A64U A121U A138G] | 0.65
31 | UACGUAGGUGGUUUUCCCCUGAUAGUGCUAAGGGGGCCUGGAAGUUUGGACUGGGCAGAGCUCUACACAGCGAGGCAAGGUGGCUGUGGCUAGACUGCCUCUCUGGAUUCCUCGUCACUCAGCAGGGCAUCUCUGAGAGAAAUGCC [A64U U73A A79G] | 0.49
32 | UACGUAGGUGGUUUUCCCCUGAUAGUGCUAAGGGGGCCUGGAAGUUUGGACUGGGCAGAGCUCUACACAGCGUGGCAAAGUGGCUGUGGCUAAGCUGCCUCUCUGGAUUCCUCGUCGCUCAGCAGGGCAUCCCUGAGAGAAAUGCC [A64U G93A A94G A117G U132C] | 0
33 | UACGUAGGUGGUUUUCCCCUGAUAGUGCUAAGGGGGCCUGGAAGUUUGGACUGGGCAGAGCUCUACACAGCGUGGCAAAGUGGCUGUGGCUAGACUGCCUCUCUGGAUUCCUCGUCACUCAGCAGGGCGUCUCCGAGAGAAAUGCC [A64U A129G U134C] | 1.31
34 | UACGUAGGUGGUUUUCCCCUGAUAGUGCUAAGGGGGCCUGGAAGUUUGGACUGGGCAGAGCUCGACACAGCGUGGCAAAGUGGCUGUGGCUAGACAGCCUCUCUGGAUUCCUCGUCACUCGGCAGGGCAUCUCUGAGAGAAAUGCC [A64G U96A A121G] | 0.04
35 | UACGUAGGUGGUUUUCCCCUGAUAGUGCUAAGGGGGCCUGGAAGUUUGGACUGGGCAGAGCUCGACACAGCGUGGCAAAGUGGCUGUGGCUAGACUGCCUCUCCGGAUCCCUCGUCACUCAGCAGGGCAUCUCUGAGAGAAAUGCC [A64G U104C U109C] | 0
36 | UACGUAGGUGGUUUUCCCCUGAUAGUGCUAAGGGGGCCUGGAAGUUUGGACUGGGCAGAGCUCUACACAGCUUGGCAAAGUGGCUGUGGCUAGUCUGCCUCUCUGGAUUCCUCGUCACUCAGCAGGGCAUCUCUGUGAGAAAUGCC [A64U G72U A94U A136U] | 0.21
37 | UACGUAGGUGGUUUUCCCCUGAUAGUGCUAAGGGGGCCUGGAAGUUUGGACUGGGCAGAGCUCGACACAGCGUGGCAAAGUGGCUGUGGCUAGACUGCCUCUCUGGAUUCCUCGUCACACAGCAGGGCAUCUCUGAGAGAGACGCC [A64G U119A A141G U143C] | 0.49
38 | UACGUAGGUGGUUUUCCCCUGAUAGUGCUAAGGGGGCCUGGAAGUUUGGACUGGGCAGAGCUCUACACAGCGUGGCAAAGUGGCUGUGGCUAGACUGCCUCUCUGGAUUCCUCGUCACUCAGCAGAGCAUCUCCGAGGGAAAUGCC [A64U G126A U134C A138G] | 0.82
39 | UACGUAGGUGGUUUUCCCCUGAUAGUGCUAAGGGGGCCUGGAAGUUUGGACUGGGCAGAGCUCUACACAGCGCGGCAAAGUGGCUGUGGCUAGACUGCCUCUCUGGAUUCCUCGUCACUCAGCAGGGCGUCUCUGAGAGAAAUGCC [A64U U73C A129G] | 0.79
